# Experimental data taken from the supplement of paper PMC3724861.
# This is one part of the list.
# Tested on: T1, Caupolican (Caup) homeodomain DNA-binding domain
# T1 sequence: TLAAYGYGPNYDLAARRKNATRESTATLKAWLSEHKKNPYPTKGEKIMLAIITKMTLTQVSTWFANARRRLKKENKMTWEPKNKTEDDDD
# Experiment: PBM E-score (8-mer, recovered from the published 9-mer minima) (E-score (dimensionless, -0.5 to 0.5)); Drosophila protein; higher = stronger relative binding preference, active = 0.31 or more
# Method in brief: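 Caup's homeodomain DNA-binding domain (residues 214-303) was made by in vitro transcription and translation and applied at 100 nM to custom-designed protein binding microarrays. Each value is an enrichment score that gives relative binding preference for a short DNA word, with higher meaning stronger. The 8-mer values were recovered from published 9-mer scores, each of which was the minimum of its two constituent 8-mer scores. A cutoff of 0.31 marks candidate sites.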
row,Sequence,PBM E-score
1,CTGGGCTA,inactive: -0.188
2,ATACGACC,inactive: 0.013
3,CGCGCTCA,inactive: -0.113
4,AAGCGAAC,inactive: -0.0444
5,CAAGAGGA,inactive: 0.0662
6,GACCAACC,inactive: -0.0677
7,AAAGCAGA,inactive: 0.0272
8,GAATTGCC,inactive: -0.109
9,ATATTCCC,inactive: -0.0539
10,GCAAAGGA,inactive: -0.0085
11,ACATACCC,inactive: 0.186
12,ATCAACTA,≥ 0.203
13,AAGGTTTA,inactive: 0.0302
14,TTGTGAAA,inactive: 0.15
15,ACATGATC,active: 0.357
16,CGCCAGCG,inactive: -0.204
17,GCATTCCC,inactive: -0.193
18,TACCTCAA,inactive: 0.0676
19,ACGGAAGC,inactive: -0.0651
20,CACCCTGC,inactive: -0.129
21,ATCTTCTA,inactive: 0.0609
22,AAGGGTCA,inactive: -0.0709
23,GAGTAACA,inactive: 0.206
24,GATTTGGA,inactive: 0.045
25,CATAAATC,inactive: 0.0929

row,Sequence,PBM E-score
1,GGGAGGGA,inactive: -0.147
2,CCGGGAAA,inactive: -0.168
3,AAAGCATG,inactive: 0.177
4,ATTATGCA,inactive: 0.0953
5,AAAATATT,inactive: 0.123
6,GCTCTCCC,inactive: -0.199
7,CAGGGATG,inactive: -0.00986
8,CTGTAACC,inactive: 0.0981
9,CGATTTAA,inactive: 0.07
10,CATTAAAC,inactive: 0.184
11,ATGTCCGA,inactive: 0.279
12,AGTGGACC,inactive: -0.151
13,AATGGGGC,inactive: -0.23
14,TGCGATAA,inactive: 0.101
15,CGTACACA,inactive: 0.255
16,ATGTCACC,inactive: 0.279
17,CGTGTCTC,inactive: 0.208
18,AAGCAGAT,inactive: 0.0654
19,ACGATACC,inactive: 0.104
20,GTTGTAGA,inactive: 0.291
21,ATCCCGCG,inactive: -0.105
22,CGTTGCTC,inactive: -0.05
23,CGAATCGA,inactive: 0.067
24,ACTAGGCG,inactive: -0.0544
25,TGCAAACA,inactive: 0.215

row,Sequence,PBM E-score
1,CGAAAAGA,inactive: 0.0819
2,CAATCAAG,inactive: 0.0488
3,CACAGTTA,inactive: 0.214
4,AAATCGCC,inactive: -0.158
5,ATGTAGAA,inactive: 0.281
6,ATGAGTTG,inactive: 0.0654
7,GAGCGTGA,inactive: -0.0615
8,CTCGTGGA,inactive: 0.0149
9,ATAAGGCA,inactive: -0.0403
10,CGTACGCC,inactive: -0.0606
11,GGGAGCTA,inactive: -0.114
12,ATGAAGAC,inactive: -0.00671
13,TAGCTGGA,inactive: -0.0238
14,AACTTTAA,inactive: 0.0347
15,AAGGATCA,≥ 0.0999
16,GAATGTCC,inactive: 0.145
17,ATGCGTGC,inactive: -0.0483
18,AAAAATTA,inactive: 0.0726
19,CTGTCACA,inactive: 0.167
20,GAAAGCCA,inactive: -0.151
21,AATGTCCG,inactive: 0.165
22,AGACTGGA,inactive: -0.0546
23,CATCAACA,inactive: 0.204
24,CACATGTG,inactive: 0.18
25,TGAGCTCA,≥ -0.0796

row,Sequence,PBM E-score
1,CAGGAGTC,inactive: -0.0753
2,CACAAGGC,inactive: 0.0776
3,CCTGGCTA,inactive: -0.0965
4,AGAAATGG,inactive: -0.00893
5,ACTGAAAT,inactive: 0.0189
6,ATGATGTC,active: 0.312
7,CCCTCAGG,inactive: -0.185
8,AGTTACTG,inactive: 0.0709
9,AGTATTAC,inactive: 0.221
10,ACTCGGGA,inactive: -0.117
11,CGATCCGC,inactive: -0.199
12,AACGTGGC,inactive: -0.118
13,CAACCGGA,inactive: -0.0434
14,CAATCTAG,inactive: 0.0281
15,AAGCCCAA,inactive: -0.0527
16,CACAGAGA,inactive: 0.0804
17,GAATATTC,inactive: 0.0294
18,GCGTGACC,inactive: -0.172
19,CACTAACG,inactive: -0.0323
20,CCTTCCTC,inactive: -0.211
21,GACCTGCC,inactive: -0.199
22,CGGTAAAA,inactive: 0.0447
23,GAAGCAGA,inactive: -0.0258
24,AAACAGCT,inactive: 0.028
25,GAAGCCAC,inactive: -0.129

row,Sequence,PBM E-score
1,GATGAATA,inactive: 0.159
2,AGGTACGA,≥ 0.0909
3,CCCGTCAA,inactive: -0.139
4,AGTAGACA,inactive: 0.17
5,CATTGCCG,inactive: -0.0521
6,CACACTTC,inactive: 0.0178
7,AGATGATA,inactive: 0.12
8,AACCTAAA,inactive: 0.0122
9,AGCAGGAG,inactive: -0.113
10,ATTGTGTA,inactive: 0.283
11,AGAGTCAG,inactive: 0.00815
12,CCACCACA,inactive: -0.0806
13,AACAAAGG,inactive: 0.132
14,CCGACTTA,inactive: -0.0361
15,GTGTCGAA,inactive: 0.241
16,ACTTAGCC,inactive: -0.032
17,AATGTGTG,inactive: 0.142
18,CGCTGTTA,inactive: 0.0663
19,ACATATCT,inactive: 0.303
20,CTTTTTGA,inactive: -0.00712
21,CCTTGACA,inactive: 0.189
22,AGTGGGTG,inactive: -0.00205
23,AACCCTGG,inactive: -0.105
24,GTTCTTGA,inactive: 0.0957
25,GCGTCGAC,inactive: -0.0367

row,Sequence,PBM E-score
1,CATCCATC,inactive: 0.0368
2,CACGAATC,inactive: 0.0584
3,CGTATACA,inactive: 0.288
4,GAGCCCTA,inactive: -0.194
5,ATCGTTCG,inactive: 0.0642
6,ATTAGTAA,inactive: 0.206
7,AATCCTGA,inactive: 0.012
8,CATGTTCA,active: 0.396
9,CCCTTACA,inactive: 0.152
10,CCGAGTGC,inactive: -0.154
11,GACGTTCA,inactive: 0.00148
12,GCGGCCCA,inactive: -0.289
13,TGCTTTAA,inactive: 0.0787
14,ATTGGGAA,inactive: 0.0708
15,CTATTCCC,inactive: -0.0582
16,GGAAAACC,inactive: -0.102
17,GCCCGTCA,inactive: -0.226
18,CTACATTC,inactive: 0.119
19,GCTACACA,inactive: 0.185
20,CTGGAAAC,inactive: 0.0891
21,ACCGGCAG,inactive: -0.244
22,CAGCGCGC,inactive: -0.143
23,AACGACTC,inactive: -0.0325
24,GCTACGAC,inactive: -0.0165
25,CACTAATC,inactive: 0.0981

row,Sequence,PBM E-score
1,AGCTGCTA,inactive: 0.00834
2,CATTTTTA,inactive: 0.0173
3,CACTTCTG,inactive: 0.0395
4,CATGAGTC,inactive: 0.0912
5,TAGAGCCA,≥ -0.0447
6,AATGAATC,inactive: 0.0715
7,AGTACTAG,inactive: 0.144
8,TGGAAAAA,inactive: 0.0566
9,CGACCAAG,inactive: -0.136
10,CTTTTGAC,inactive: 0.0645
11,AGAACAGA,inactive: 0.16
12,CATGCTCC,inactive: 0.0916
13,AGTGCGGG,inactive: -0.187
14,GATGTCAA,active: 0.332
15,ATTCCAGA,inactive: 0.0248
16,CATGGGGA,inactive: -0.00204
17,GAGAATCA,inactive: -0.0157
18,TATCCGCA,≥ 0.0482
19,AGGCGCTG,inactive: -0.0638
20,ATGTTCAC,active: 0.334
21,CCGACATC,inactive: 0.2
22,GAAGTGGC,inactive: -0.0447
23,CCTACGGA,inactive: -0.166
24,GCCGTTTA,inactive: -0.0967
25,CGTTTGTA,inactive: 0.148

row,Sequence,PBM E-score
1,CTCTTCAG,inactive: -0.0878
2,CTCGTCTC,inactive: -0.0812
3,CGTTATTA,inactive: 0.116
4,ACAAGGAC,inactive: 0.305
5,ATCTGGTA,inactive: 0.152
6,GTAAGTTA,inactive: 0.155
7,CAAGCATC,inactive: -0.00124
8,ACGTACGC,inactive: 0.0155
9,AGACCTCC,inactive: -0.206
10,ATGCATGG,inactive: 0.0164
11,TATATATA,inactive: 0.216
12,AGGGAATA,inactive: 0.0498
13,CAAATCGG,inactive: -0.00141
14,CAACATAA,inactive: 0.295
15,GTGAGCAC,inactive: -0.0713
16,CAGGTGCA,inactive: -0.07
17,CACGATCG,inactive: 0.0268
18,AATGGGAC,inactive: 0.0228
19,CTTGAGGA,inactive: -0.142
20,ATTATGAC,inactive: 0.223
21,CGGGACCC,inactive: -0.247
22,AGTGCAAA,inactive: 0.0755
23,ACCCGTCA,inactive: -0.0785
24,AGCGCCCC,inactive: -0.362
25,CACGCTCG,inactive: -0.051

row,Sequence,PBM E-score
1,CAACTGCA,inactive: 0.0747
2,AAATACAC,active: 0.312
3,GCGGAACA,inactive: 0.133
4,GGGCGACC,inactive: -0.298
5,CGGTGAAC,inactive: 0.0357
6,ACGTCACA,≥ 0.089
7,CACGTCTG,inactive: 0.0121
8,CAGCTAGG,inactive: -0.046
9,CGATATAG,inactive: 0.0674
10,AAGACCGG,inactive: -0.0352
11,AGGGTTAG,inactive: 0.00071
12,CGGACTCC,inactive: -0.179
13,GTCGTCCA,inactive: 0.0521
14,ACATATGA,inactive: 0.284
15,CTTTCAAC,inactive: -0.013
16,AACCTTGC,inactive: -0.0448
17,CGATAAAA,inactive: 0.0273
18,ACCCTTAC,inactive: 0.00177
19,CCTCAGGC,inactive: -0.259
20,CCGGCCTA,inactive: -0.181
21,CTTCTATC,inactive: -0.076
22,AAGCCAGC,inactive: -0.0993
23,ACCACTCA,inactive: 0.0766
24,CCGCATTC,inactive: -0.0832
